# Assay results from the supplement of paper PMC8728848.
# The list shows a part of the results.
# Legend:
# Assay in all cases: glycan array binding signal (z-score within array); higher = stronger binding
# Details in all cases: glycan notation: IUPAC condensed, linker removed
# [1] = target: Gal(b1-3)[Fuc(a1-4)]GlcNAc(b1-3)Gal(b1-4)GlcNAc
# Outline: (§1)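 Columns mapping to the same glycan were averaged after glycan names were converted to IUPAC-condensed notation. The data come from 3228 arrays in the Consortium for Functional Glycomics database, limited to those with an available protein sequence. Binding is reported as a within-array Z-score averaged across arrays of one protein sequence and across linkers.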
# [2] = target: Gal(b1-3)[Fuc(a1-4)]GlcNAc(b1-3)Gal(b1-4)[Fuc(a1-3)]GlcNAc
# Outline: as §1
# [3] = target: Gal(b1-3)[GlcNAc(b1-6)]GalNAc
# Outline: as §1
# [4] = target: Gal(b1-3)[Neu5Ac(a2-6)]GalNAc
# Outline: as §1
# [5] = target: Gal(b1-3)[Neu5Ac(a2-6)]GlcNAc(b1-6)Gal(b1-4)Glc
# Outline: as §1
# [6] = target: Gal(b1-3)[Neu5Ac(b2-6)]GalNAc
# Outline: as §1
# [7] = target: Gal(b1-4)Gal
# Outline: as §1
# [8] = target: Gal(b1-4)GalNAc(a1-3)[Fuc(a1-2)]Gal(b1-4)GlcNAc
# Outline: as §1
# [9] = target: Gal(b1-4)GalNAc(b1-3)[Fuc(a1-2)]Gal(b1-4)GlcNAc
# Outline: as §1
# [10] = target: Gal(b1-4)Glc
# Outline: as §1
# [11] = target: Gal(b1-4)Glc6S
# Outline: as §1
# [12] = target: Gal(b1-4)GlcNAc
# Outline: as §1
# [13] = target: Gal(b1-4)GlcNAc(a1-6)Gal(b1-4)GlcNAc
# Outline: as §1
# [14] = target: Gal(b1-4)GlcNAc(b1-2)Man
# Outline: as §1
# [15] = target: Gal(b1-4)GlcNAc(b1-2)Man(a1-3)Man(b1-4)GlcNAc(b1-4)GlcNAc
# Outline: as §1
# [16] = target: Gal(b1-4)GlcNAc(b1-2)Man(a1-3)[Gal(b1-4)GlcNAc(b1-2)Man(a1-6)]Man(b1-4)GlcNAc(b1-4)GlcNAc
# Outline: as §1
# [17] = target: Gal(b1-4)GlcNAc(b1-2)Man(a1-3)[Gal(b1-4)GlcNAc(b1-2)Man(a1-6)]Man(b1-4)GlcNAc(b1-4)[Fuc(a1-6)]GlcNAc
# Outline: as §1
# [18] = target: Gal(b1-4)GlcNAc(b1-2)Man(a1-3)[Gal(b1-4)GlcNAc(b1-2)][GlcNAc(b1-4)]Man(b1-4)GlcNAc(b1-4)GlcNAc
# Outline: as §1
# [19] = target: Gal(b1-4)GlcNAc(b1-2)Man(a1-3)[GlcNAc(b1-2)Man(a1-6)]Man(b1-4)GlcNAc(b1-4)GlcNAc
# Outline: as §1
# [20] = target: Gal(b1-4)GlcNAc(b1-2)Man(a1-3)[Man(a1-6)]Man(b1-4)GlcNAc(b1-4)GlcNAc
# Outline: as §1
# [21] = target: Gal(b1-4)GlcNAc(b1-2)Man(a1-6)Man(b1-4)GlcNAc(b1-4)GlcNAc
# Outline: as §1
# [22] = target: Gal(b1-4)GlcNAc(b1-2)Man(a1-6)[GlcNAc(b1-2)Man(a1-3)]Man(b1-4)GlcNAc(b1-4)GlcNAc
# Outline: as §1
# [23] = target: Gal(b1-4)GlcNAc(b1-2)Man(a1-6)[Man(a1-3)]Man(b1-4)GlcNAc(b1-4)GlcNAc
# Outline: as §1
# [24] = target: Gal(b1-4)GlcNAc(b1-2)[Gal(b1-4)GlcNAc(b1-4)]Man(a1-3)[Gal(b1-4)GlcNAc(b1-2)Man(a1-6)]Man(b1-4)GlcNAc(b1-4)GlcNAc
# Outline: as §1
# [25] = target: Gal(b1-4)GlcNAc(b1-2)[Gal(b1-4)GlcNAc(b1-4)]Man(a1-3)[Gal(b1-4)GlcNAc(b1-2)[Gal(b1-4)GlcNAc(b1-6)]Man(a1-6)]Man(b1-4)GlcNAc(b1-4)GlcNAc
# Outline: as §1
# [26] = target: Gal(b1-4)GlcNAc(b1-2)[Gal(b1-4)GlcNAc(b1-4)]Man(a1-3)[GlcNAc(b1-4)][Gal(b1-4)GlcNAc(b1-2)Man(a1-6)]Man(b1-4)GlcNAc(b1-4)GlcNAc
# Outline: as §1
# [27] = target: Gal(b1-4)GlcNAc(b1-2)[Gal(b1-4)GlcNAc(b1-4)]Man(a1-3)[GlcNAc(b1-4)][Gal(b1-4)GlcNAc(b1-2)[Gal(b1-4)GlcNAc(b1-6)]Man(a1-6)]Man(b1-4)GlcNAc(b1-4)GlcNAc
# Outline: as §1
# [28] = target: Gal(b1-4)GlcNAc(b1-2)[Gal(b1-4)GlcNAc(b1-6)]Man(a1-6)[Gal(b1-4)GlcNAc(b1-2)Man(a1-3)]Man(b1-4)GlcNAc(b1-4)GlcNAc
# Outline: as §1
# [29] = target: Gal(b1-4)GlcNAc(b1-2)[Gal(b1-4)GlcNAc(b1-6)]Man(a1-6)[GlcNAc(b1-4)][Gal(b1-4)GlcNAc(b1-2)Man(a1-3)]Man(b1-4)GlcNAc(b1-4)GlcNAc
# Outline: as §1
# [30] = target: Gal(b1-4)GlcNAc(b1-3)Gal(b1-3)GlcNAc
# Outline: as §1
# [31] = target: Gal(b1-4)GlcNAc(b1-3)Gal(b1-4)Glc
# Outline: as §1
# [32] = target: Gal(b1-4)GlcNAc(b1-3)Gal(b1-4)GlcNAc
# Outline: as §1
# [33] = target: Gal(b1-4)GlcNAc(b1-3)Gal(b1-4)GlcNAc(b1-3)Gal(b1-4)GlcNAc
# Outline: as §1
# [34] = target: Gal(b1-4)GlcNAc(b1-3)Gal(b1-4)[Fuc(a1-3)GlcNAc(b1-6)]Gal(b1-4)Glc
# Outline: as §1
# [35] = target: Gal(b1-4)GlcNAc(b1-3)Gal(b1-4)[Fuc(a1-3)]GlcNAc(b1-3)Gal(b1-4)[Fuc(a1-3)]GlcNAc
# Outline: as §1
# [36] = target: Gal(b1-4)GlcNAc(b1-3)GalNAc
# Outline: as §1
# [37] = target: Gal(b1-4)GlcNAc(b1-3)[Gal(b1-4)GlcNAc(b1-6)]Gal(b1-4)GlcNAc
# Outline: as §1
# [38] = target: Gal(b1-4)GlcNAc(b1-3)[Gal(b1-4)GlcNAc(b1-6)]GalNAc
# Outline: as §1
# [39] = target: Gal(b1-4)GlcNAc(b1-3)[GlcNAc(b1-6)]Gal(b1-4)GlcNAc
# Outline: as §1
# [40] = target: Gal(b1-4)GlcNAc(b1-6)Gal(b1-4)GlcNAc
# Outline: as §1
# [41] = target: Gal(b1-4)GlcNAc(b1-6)GalNAc
# Outline: as §1
# [42] = target: Gal(b1-4)GlcNAc(b1-6)[Gal(b1-3)]GalNAc
# Outline: as §1
# [43] = target: Gal(b1-6)Gal
# Outline: as §1
# [44] = target: Gal3S(b1-3)GalNAc
# Outline: as §1
# [45] = target: Gal3S(b1-3)GlcNAc
# Outline: as §1
binder,measurement,setting,value
PpFlo3 (Pichia pastoris) (protein) MGSSHHHHHHSSGLVPRGSHMQESGNGTTSDTAYACDIGATPFDGFNATIYQYQASDDNSIQDPVFMSTGYLQRNQLHSTTGVTNPGFNIFTAGVATTTLYGIPNVNYQNMLLELKGYFRADASGNYGLSLRNIDDSAILFFGRETAFECCNENLIPLDEAPTDYSLFTIKEGEASTNPDSYTYTQYLEAGRYYPVRTFFANIRTRAVFNFTMTLPDGSELTDFQNYIFQFGALNQ,glycan array binding signal (z-score),[1],-0.256
same,glycan array binding signal (z-score),[2],-0.194
same,glycan array binding signal (z-score),[3],-0.083
same,glycan array binding signal (z-score),[4],-0.274
same,glycan array binding signal (z-score),[5],-0.226
same,glycan array binding signal (z-score),[6],0.357
same,glycan array binding signal (z-score),[7],-0.269
same,glycan array binding signal (z-score),[8],-0.188
same,glycan array binding signal (z-score),[9],0.675
same,glycan array binding signal (z-score),[10],-0.279
same,glycan array binding signal (z-score),[11],4.38
same,glycan array binding signal (z-score),[12],-0.258
same,glycan array binding signal (z-score),[13],-0.276
same,glycan array binding signal (z-score),[14],-0.275
same,glycan array binding signal (z-score),[15],-0.233
same,glycan array binding signal (z-score),[16],-0.274
same,glycan array binding signal (z-score),[17],-0.276
same,glycan array binding signal (z-score),[18],-0.307
same,glycan array binding signal (z-score),[19],-0.246
same,glycan array binding signal (z-score),[20],-0.233
same,glycan array binding signal (z-score),[21],-0.256
same,glycan array binding signal (z-score),[22],4.01
same,glycan array binding signal (z-score),[23],-0.108
same,glycan array binding signal (z-score),[24],-0.279
same,glycan array binding signal (z-score),[25],-0.229
same,glycan array binding signal (z-score),[26],-0.285
same,glycan array binding signal (z-score),[27],-0.245
same,glycan array binding signal (z-score),[28],-0.251
same,glycan array binding signal (z-score),[29],-0.288
same,glycan array binding signal (z-score),[30],0.131
same,glycan array binding signal (z-score),[31],-0.28
same,glycan array binding signal (z-score),[32],0.122
same,glycan array binding signal (z-score),[33],-0.284
same,glycan array binding signal (z-score),[34],-0.282
same,glycan array binding signal (z-score),[35],-0.266
same,glycan array binding signal (z-score),[36],-0.236
same,glycan array binding signal (z-score),[37],-0.277
same,glycan array binding signal (z-score),[38],-0.249
same,glycan array binding signal (z-score),[39],-0.276
same,glycan array binding signal (z-score),[40],-0.284
same,glycan array binding signal (z-score),[41],-0.284
same,glycan array binding signal (z-score),[42],-0.293
same,glycan array binding signal (z-score),[43],-0.281
same,glycan array binding signal (z-score),[44],-0.166
same,glycan array binding signal (z-score),[45],-0.271
